# In the supplement of paper PMC3334620:
# Over roughly 33,000 sequences, “E-score (-0.5 to 0.5)” has its median near -0.013; the highest 2% begin near 0.3. This is one part of the list.
# Target: T1, Msn1 (UniProt P22148)
# T1 sequence: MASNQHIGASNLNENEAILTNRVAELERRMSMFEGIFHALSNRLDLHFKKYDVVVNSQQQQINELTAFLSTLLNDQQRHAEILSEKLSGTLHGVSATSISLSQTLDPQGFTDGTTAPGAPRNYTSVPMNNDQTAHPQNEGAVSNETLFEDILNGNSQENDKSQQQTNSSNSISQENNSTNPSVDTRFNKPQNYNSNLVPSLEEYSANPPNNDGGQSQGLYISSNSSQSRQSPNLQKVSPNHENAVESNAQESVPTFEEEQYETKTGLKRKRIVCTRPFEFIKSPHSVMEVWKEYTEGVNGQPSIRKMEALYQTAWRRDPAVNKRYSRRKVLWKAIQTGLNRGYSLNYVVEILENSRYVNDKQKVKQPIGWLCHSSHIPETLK
# Assay: PBM E-score (8-mer binding enrichment) (E-score (-0.5 to 0.5)); higher = stronger / more preferred TF binding; most listed sequences are background and not binding sites
# Settings: protein concentration: 200 nM; construct: GST-full length
# How it was run: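 E-scores (a modified Wilcoxon-Mann-Whitney statistic) were assigned by the Universal PBM Analysis Suite to every ungapped eight-base word pooled with its reverse complement. The input came from universal all-10-mer Agilent arrays made double-stranded by primer extension and probed with GST-tagged yeast transcription factors at about 100-200 nM. Fluorescent anti-GST detected bound protein, and masliner normalised the scans.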
row,Sequence,PBM E-score
1,ATGTCTTA,0.423
2,CCAGCTAA,-0.134
3,ACACGGGT,0.00665
4,ATTCAGTA,0.146
5,CACATGAC,-0.0252
6,AATAATGT,0.19
7,CGAACGGA,0.0436
8,ACAAACAT,0.184
9,AAAAGCTG,0.0581
10,ATAGTGAA,0.167
11,CGGACAAC,0.369
12,CCCGAGCA,-0.107
13,GAGTACAA,0.262
14,GACATGGC,0.276
15,CATACCCG,-0.173
16,ACACGCCC,0.0947
17,GGAATCAA,0.0658
18,CCAAGTGC,-0.302
19,GACCCGGA,0.0712
20,GTACATTA,0.278
21,AAGGATTA,-0.104
22,AGGTTGAC,-0.118
23,AACTTGCG,0.0743
24,ATCAGACA,0.173
25,CTAGTTAC,-0.0451

row,Sequence,PBM E-score
1,CATCAGGG,0.0197
2,AGCAACCG,-0.00612
3,CCGATCCA,-0.0522
4,AATCGGCC,-0.0942
5,GGTGATTA,0.00544
6,AACGGGCT,-0.132
7,ACCCTCCA,-0.203
8,AAAGTTTC,-0.0484
9,CAGGTGAG,-0.27
10,GGCAATGA,-0.0827
11,GAGTCGCA,-0.262
12,CTGACTTC,0.0219
13,GGCCCCAC,-0.282
14,CACGCTGG,-0.156
15,CAAGTACA,0.298
16,ACTAGCAT,-0.0656
17,ACATATTC,0.34
18,CAGACGGA,0.113
19,AAACCTGT,0.143
20,AAGGCATG,-0.181
21,AGGCGTAA,-0.194
22,CGCATACC,0.15
23,CCTTCTCC,-0.272
24,CCAACGTC,-0.195
25,AACGAAGC,-0.0499

row,Sequence,PBM E-score
1,CGACACGA,0.274
2,CTCAATTA,0.0647
3,CTAATAAG,-0.0321
4,ACCTGCAT,0.043
5,ATCCTCAT,-0.167
6,AGGCAGTC,-0.112
7,GGTCCGCA,0.00679
8,CGTAATAC,-0.0604
9,CCGCTGGA,0.00741
10,ACCCCGTG,-0.205
11,ATTATTCG,0.175
12,GTAAGGAA,-0.0151
13,CGAGCGAG,0.2
14,GTAGCATA,-0.154
15,TTAAAAAA,0.286
16,CACACTAC,-0.188
17,AATTTAAC,0.0583
18,CCGTATCC,-0.0713
19,CATGTGCC,0.146
20,ATCCACGG,0.14
21,GTCCCGTA,0.153
22,GTCAAACA,-0.0362
23,CCCATGGC,-0.293
24,AATTTGCA,-0.149
25,GCGTAACA,0.0738

row,Sequence,PBM E-score
1,ATAAACAA,0.202
2,AGTTTGTG,-0.0605
3,CTCATGAA,-0.00812
4,CTCCTTCA,-0.3
5,CAGGGGCA,-0.139
6,AGGGATAT,-0.113
7,AATCTTAC,0.0531
8,AGTCCATA,0.171
9,CGGCAGCC,-0.118
10,GATCCGAC,-0.123
11,ACTCGGCT,-0.102
12,CATGGTGG,-0.157
13,GCAGACCC,-0.109
14,CGTATTCC,-0.00514
15,AAGCACAT,0.0253
16,CTTTCCAA,0.00908
17,AACTCGGA,0.131
18,AGACGTCA,-0.118
19,AGTCTTAC,-0.0459
20,ACGTCCGA,-0.00037
21,AGCTTGCA,-0.132
22,AAGTTTGA,0.124
23,CACGAGCC,-0.145
24,AATCGTGT,0.133
25,AAGATGTC,0.252

row,Sequence,PBM E-score
1,AACGCACG,0.228
2,TCACACAA,0.0114
3,GAATCTGA,-0.0387
4,ACAATTTA,0.183
5,AATCCCGG,0.132
6,GGCAGCAA,-0.111
7,GCGAACGA,0.0301
8,CTTCTGCA,-0.141
9,ACACCCTC,-0.343
10,ATGCGACA,0.217
11,GGCCGGCC,0.0825
12,CTCCAGGC,-0.178
13,CTTGCGGC,-0.119
14,AGTGTTAG,0.0782
15,TCAGGCCA,-0.139
16,CCACGGCA,-0.0291
17,AGTCATTG,0.0331
18,ATACCTTA,0.0247
19,TAAGGCAA,-0.0333
20,AGATACCA,0.063
21,CCATGTAA,0.135
22,AGCGGAAA,0.0968
23,ACTCTCAT,-0.0427
24,ACAGGGAG,-0.226
25,GGCTGTCA,-0.197

row,Sequence,PBM E-score
1,CCGAACTC,0.093
2,AGTGCAGG,-0.108
3,ACTGAAGA,0.147
4,AGGGGGAG,-0.436
5,AGCCGTTG,0.121
6,CCCGGCGC,-0.206
7,CCGTTGCC,-0.194
8,ATCTGAAT,0.0826
9,CACCGAAA,0.116
10,ACCAATTG,-0.0886
11,ATCTGCGG,-0.0472
12,CTCACAGC,-0.0585
13,AGAACCGG,-0.0453
14,ATCCCCAG,-0.208
15,ACGCCTCC,-0.274
16,AAATCCTA,-0.0454
17,ACCCGACG,-0.0255
18,GCGCCTAA,0.129
19,ACTAACCA,-0.00287
20,CATAGGAG,-0.0671
21,AGAGATTA,0.0388
22,CCTCTTTC,-0.0391
23,CAGTTTGG,-0.196
24,GCGTGAGC,-0.0269
25,GTCCACCA,0.078

row,Sequence,PBM E-score
1,CGATATGC,0.136
2,GGTTCTAA,0.105
3,CATTACAC,0.161
4,CTCTAACA,0.0458
5,CATTCTGG,-0.152
6,CTGAAGGA,-0.176
7,AAGTGGCG,-0.0607
8,AGTAGTCC,0.00303
9,ACCACGAT,-0.00315
10,GCTCGTGA,-0.29
11,AATTCTTC,0.101
12,CTCTAGTA,0.0694
13,ATGTCGAA,0.0756
14,CATCCGGA,0.187
15,ACCCACCA,-0.231
16,TACACTCA,0.0265
17,GGGGCGGA,-0.213
18,AATGAATG,0.168
19,CCTCGGTC,-0.157
20,CTTAGAAC,0.184
21,CATTAGAG,-0.135
22,AGACTCAA,-0.0426
